Among all 310,000 compounds or so, about 14,000 (4.5%) showed an effect of 50% or more. The effect is printed as a negative number. This is one part of the list.
Target: human ether-à-go-go-related gene (hERG) potassium channel (human, UniProt Q12809)
Assay: primary screen, population patch clamp on CHO cells stably expressing hERG
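Also: peak tail current of the secondary pulse compared with the same well before compound.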

Chain of human ether-à-go-go-related gene (hERG) potassium channel (Q12809 whole entry, looked up): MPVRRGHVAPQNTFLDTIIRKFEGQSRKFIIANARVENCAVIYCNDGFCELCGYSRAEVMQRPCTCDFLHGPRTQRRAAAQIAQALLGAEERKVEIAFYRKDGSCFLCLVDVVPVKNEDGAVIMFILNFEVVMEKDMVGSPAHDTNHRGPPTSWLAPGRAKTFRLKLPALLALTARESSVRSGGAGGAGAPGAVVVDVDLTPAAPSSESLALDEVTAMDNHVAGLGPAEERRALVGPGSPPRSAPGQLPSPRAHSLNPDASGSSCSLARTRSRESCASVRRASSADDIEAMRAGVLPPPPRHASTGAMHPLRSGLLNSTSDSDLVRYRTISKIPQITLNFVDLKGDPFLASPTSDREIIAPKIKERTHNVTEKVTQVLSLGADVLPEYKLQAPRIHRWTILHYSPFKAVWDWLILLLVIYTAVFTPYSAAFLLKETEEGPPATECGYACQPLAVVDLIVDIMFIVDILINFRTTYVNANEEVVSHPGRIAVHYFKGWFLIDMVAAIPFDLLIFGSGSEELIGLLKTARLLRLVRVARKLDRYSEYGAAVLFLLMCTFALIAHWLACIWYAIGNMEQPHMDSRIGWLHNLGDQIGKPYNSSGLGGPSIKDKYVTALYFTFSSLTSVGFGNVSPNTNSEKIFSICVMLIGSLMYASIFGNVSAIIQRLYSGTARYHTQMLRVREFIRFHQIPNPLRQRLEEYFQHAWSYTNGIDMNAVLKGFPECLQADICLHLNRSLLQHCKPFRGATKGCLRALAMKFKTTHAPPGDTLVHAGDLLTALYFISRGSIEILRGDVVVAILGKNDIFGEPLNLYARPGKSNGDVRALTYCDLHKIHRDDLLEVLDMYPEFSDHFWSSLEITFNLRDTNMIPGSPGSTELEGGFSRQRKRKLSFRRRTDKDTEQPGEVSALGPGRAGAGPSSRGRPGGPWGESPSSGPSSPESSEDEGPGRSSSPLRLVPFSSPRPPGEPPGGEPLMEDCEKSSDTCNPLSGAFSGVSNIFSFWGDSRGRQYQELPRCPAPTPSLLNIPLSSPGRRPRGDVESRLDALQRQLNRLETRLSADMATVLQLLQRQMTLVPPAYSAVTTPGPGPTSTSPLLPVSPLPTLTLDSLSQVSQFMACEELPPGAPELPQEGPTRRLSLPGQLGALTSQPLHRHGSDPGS

Row | SMILES | hERG current change (%, negative = inhibition) at 10uM [%]
1 | CC(C)OCc1ccc(C(=O)N2CCN(S(=O)(=O)c3ccc(Br)s3)CC2)cc1 | -19.6
2 | COc1cc(NC(=O)c2cc([N+](=O)[O-])ccc2NC(=O)CNC2CCCCC2C)cc(OC)c1 (centres unmarked) | 20.3
3 | CSc1ccc(C(=O)C2CCCN(C(=O)c3nn(C)c(=O)c4ccccc34)C2)cc1 (centres unmarked) | -64.9
4 | Cc1ccc2[nH]c3c(c2c1)CN(C(C)C)CC3 | 1.36
5 | O=C(OCC(=O)c1c[nH]c2ccccc12)c1ccc(Br)o1 | -5.45
6 | CC/S(=N\S(=O)(=O)c1ccc(C)cc1)c1ccccc1 (centres unmarked) | 7.45
7 | CCNC(=O)N1CCNC(=O)C1CC(=O)OC (centres unmarked) | 24.9
8 | COc1cc(/C=N/NC(=O)c2csc3c2CCCC3)cc(OC)c1O | -8.83
9 | NC(=O)c1ccc(NC(=O)C2CCCO2)cc1 (centres unmarked) | 2.91
10 | CC(Oc1ccc(Cl)cc1Cl)c1ccn[nH]1 (centres unmarked) | -7.99
11 | CCOC(=O)CNC(=O)CSc1nnc(-c2c[nH]c3ccccc23)n1CC | -11.6
12 | O=C(COC(=O)/C=C/c1ccc(OC(F)F)cc1)NCCN1C(=O)CSC1=O | -60.8
13 | CNC(=O)/C=C/c1cc(C(=O)c2ccc(Cl)cc2Cl)cn1C | 4.02
14 | O=C(NCc1cccnc1)c1ccccc1Br | -3.75
15 | CCn1c(=O)n(CC(=O)Nc2cc(OC)ccc2OC)c(=O)c2ccccc21 | 4.29
16 | CCS(=O)(=O)N1CCN(C(=O)c2cccs2)CC1 | 9.72
17 | COC(=O)C1=C(c2ccc(OC)c(OC)c2)C[C@@H]2CC[C@H]1N2C(=O)NCc1ccc(F)cc1 | -0.0689
18 | O=C(NCCCl)c1ccc(OCc2ccccc2)cc1Cl | 2.99
19 | O=C(Nc1ccccc1)c1ccc(-c2ccc(Br)cc2)o1 | 6.06

Row | SMILES | hERG current change (%, negative = inhibition) at 10uM [%]
20 | COc1ccc(C(=O)N/C(=C\c2cccc3ccccc23)C(=O)N2CCN(C)CC2)cc1 | -65.6
21 | COc1ccccc1/C=C/C(=O)c1cc(Br)ccc1OC(=O)c1ccco1 | 15.4
22 | CCOC(=O)C(NCCCCl)c1ccccc1 (centres unmarked) | 2.53
23 | CN(C)C(=O)c1cc([N+](=O)[O-])cc([N+](=O)[O-])c1N(C)C | 9.2
24 | CC(c1ccco1)N(C(=O)c1ccc(Cl)c([N+](=O)[O-])c1)c1ccccn1 (centres unmarked) | 2.75
25 | CCOc1cc(N2CCOCC2)c(OCC)cc1NC(=O)CCS(=O)(=O)c1ccc(Cl)cc1 | -35.5
26 | CC(C)CNC(=O)CC(=O)NN=C1CCCC1 | 19.5
27 | COC(=O)CSc1nnc(CCc2ccccc2)n1C | 11.6
28 | N#C/C(=N\Nc1ccc(S(=O)(=O)N2CCOCC2)cc1)C(N)=S | -2.88
29 | COc1cc(OC)c(OC)cc1CN1CCN(C(=O)Cc2ccccc2)CC1.O=C(O)C(=O)O | 5.5
30 | COc1ccc(-c2nc3c(s2)CCc2onc(-c4ccc(OC)cc4)c2-3)cc1 | -6.94
31 | COc1ccc(C2C(C(C)=O)=C(O)C(=O)N2C)c(OC)c1 (centres unmarked) | 2.38
32 | CCOC(=O)C1CCCN(C(=O)c2cn(CC)c3ccc(S(=O)(=O)N(C)C)cc3c2=O)C1 (centres unmarked) | 11.9
33 | NC(=O)NC(=O)COC(=O)c1ccc(OC(F)(F)F)cc1 | -1.84
34 | Cl.O=C(c1cccc(S(=O)(=O)N2CCCCC2)c1)N1CCN(Cc2ccccc2)CC1 | -56.6
35 | CCn1c(COc2ccccc2)nc2ccccc21 | 3.03
36 | N#CC(C#N)=C1C=CC=CN1/C(=C\c1ccco1)C(=O)c1ccccc1 | -57.8
37 | O=C1/C(=C/c2ccccc2F)SC(=S)N1CCC(=O)N1CCCCC1CCO (centres unmarked) | -0.41
38 | NC(=O)C1CCN(CC(=O)N2N=CCC2c2ccccc2)CC1 (centres unmarked) | 2.46

Row | SMILES | hERG current change (%, negative = inhibition) at 10uM [%]
39 | CN1CCN(C(=O)c2cn(-c3ccccc3)nc2-c2cccnc2)CC1 | -18.4
40 | O=C(CSc1ncccn1)NCC1CCCO1 (centres unmarked) | -1.44
41 | COc1ccccc1N(C)S(=O)(=O)c1ccc(C(=O)OC(C)C(=O)NCc2ccc3c(c2)OCO3)cc1 (centres unmarked) | -41.6
42 | COC(=O)CC1C(=O)NCCN1C(=O)c1c(F)cccc1F (centres unmarked) | 14.5
43 | COc1cc(NC(=O)CCCN2C(=O)NC(C)(C)C2=O)cc(OC)c1 | 12.2
44 | O=C(CCn1nc(-c2ccccc2)ccc1=O)N1CCOCC1 | -32
45 | CN1CCN(C(=O)N2CCNC2=O)CC1.Cl | 3.85
46 | Cc1ccc(-c2nnc(Nc3ccc(C(N)=O)cc3)c3ccccc23)cc1S(=O)(=O)NCC1CCCO1 (centres unmarked) | 4.4
47 | O=C(O)c1ccccc1NC(=S)NC(NC(=O)c1ccccc1[N+](=O)[O-])C(Cl)(Cl)Cl (centres unmarked) | 7.96
48 | COc1cc(OC)cc(C(=O)Nc2nnc(SCC(=O)NCC3CCCO3)s2)c1 (centres unmarked) | 14.3
49 | O=C1Nc2c(c(=O)[nH]c(=O)n2Cc2ccccc2)C1(NS(=O)(=O)c1ccccc1)C(F)(F)F (centres unmarked) | 15.3
50 | Cc1cccc(-n2c(C)cc(/C=N/NC(=O)c3ccc(CN4CCOCC4)cc3)c2C)c1 | -29.3
51 | Cc1ccc2nc(NC(=O)CSc3nncc(=O)n3N)sc2c1 | -9.17
52 | COc1cc2cc(C(=O)N3CCN(c4ccccc4OC)CC3)[nH]c2cc1OC | 24.5
53 | CCCC(NC(=O)c1ccco1)c1nc2ccccc2[nH]1 (centres unmarked) | -6.95
54 | CC1CN(C(=O)CCC(=O)NC(C)c2ccccc2)c2cc(Cl)ccc2O1 (centres unmarked) | -35
55 | CCOc1ccc(-n2c(SCC(=O)N3CCc4ccccc43)nnc2-c2c[nH]c3ccccc23)cc1 | 22.8
56 | Cn1c(N)c(N2CCCCC2)c(=O)n(CC(=O)Nc2ccc(Cl)c(Cl)c2)c1=O | -7.67
